# Measured values taken from PubChem BioAssay AID1346428 (National Center for Advancing Translational Sciences (NCATS), 2018).
# Values joined by “and” are separate entries in the source; they are usually repeats but may differ in a detail not shown here. Equal entries are not always repeated. The campaign covered roughly 48,000 compounds. About 1,200 (2.5%) were called active. Not shown: some 2% with an inconclusive outcome.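 How the source made its calls: active means activation of at least 60% and not above a set upper limit (about 1 call in 100 departs from these limits); inconclusive means activation of 40% to 60%, or above that upper limit; inactive means activation under 40%.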 The list shows a part of the results.
# Molecular target: Probable G-protein coupled receptor 32 (Homo sapiens) (UniProt O75388)
# Chain of UniProt O75388 (O75388 whole entry, looked up): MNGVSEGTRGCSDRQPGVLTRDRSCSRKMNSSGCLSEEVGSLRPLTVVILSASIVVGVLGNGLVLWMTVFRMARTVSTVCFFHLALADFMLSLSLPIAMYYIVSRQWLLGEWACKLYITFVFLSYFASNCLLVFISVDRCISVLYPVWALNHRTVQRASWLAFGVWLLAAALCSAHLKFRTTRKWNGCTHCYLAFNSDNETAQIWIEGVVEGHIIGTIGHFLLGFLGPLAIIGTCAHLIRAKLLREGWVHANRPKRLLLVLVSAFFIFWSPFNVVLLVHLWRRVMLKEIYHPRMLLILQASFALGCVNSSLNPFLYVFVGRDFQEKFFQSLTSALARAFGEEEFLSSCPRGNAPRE
# Assay: qHTS for Agonists of Human Resolvin D1 Receptor DRV1
# Conditions: CHO-K1 GPR32 beta-arrestin PathHunter luminescence, 90 min; at 76.9 µM; active compounds read high; zero percent set by DMSO-only wells
# How it was run: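 Beta-arrestin recruitment read-out: luminescence from complemented beta-Gal in CHO-K1 GPR32 PathHunter cells, measured 1 h after detection reagent at ambient temperature following 90 min compound exposure at 37 °C; DMSO served as basal (EC0) control.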
row,SMILES,activation
1,COc1cccc(C(=O)Nc2c(C(=O)N3CCN(c4ccc(F)cc4)CC3)oc3ccccc23)c1,inactive: -9.87%
2,COc1cc2ccccc2cc1C(=O)Nc1ccc2oc(-c3ccc(F)cc3Cl)nc2c1,inactive: 0.107%
3,CCc1ccc(CNC(=O)c2c(C)oc3ncnc(N4CCOCC4)c23)cc1,inactive: -8%
4,CC(C)c1ccc(Nc2cc(C(=O)NC3CCCCC3)c3ccccc3n2)cc1,inactive: -9.15%
5,CCc1ccc2occ(CC(=O)Nc3ccccc3C(F)(F)F)c2c1,inactive: 0.0964%
6,CCc1cccc(-n2c(=O)c3cccnc3n2CC(=O)Nc2ccc(F)c(C)c2)c1,inactive: -6.32%
7,CCc1ccccc1OCC(=O)Nc1ccc(S(=O)(=O)Nc2nc(C)cc(C)n2)cc1,inactive: -8.96%
8,CCOc1ccccc1-n1nnc(-c2nsc(NC(=O)c3ccc(C)cc3)n2)c1C,inactive: -4.28%
9,Cc1cccc(N2CCN(CCNC(=O)Nc3ccc(Cl)cc3)CC2)c1C,inactive: -5.03%
10,COc1ccccc1NC(=O)CSc1nc(-c2ccc(C(C)(C)C)cc2)c(C#N)c(=O)[nH]1,inactive: -8.17%
11,O=C(NCCn1ccc2ccccc21)c1ccc(Cl)cc1,inactive: 40%
12,COc1ccc(NC(=O)Cn2c(=O)n(Cc3nc(-c4ccccc4)no3)c(=O)c3ccccc32)cc1Cl,inactive: -7.03%
13,COc1ccc(/C=C/C(=O)Nc2nc3n(n2)C(c2ccc(F)cc2)C=C(c2ccccc2)N3)cc1 (stereo not given),inactive: -12.5%
14,CCOC(=O)c1c(-c2ccc(C)cc2)csc1NC(=O)c1cc(=O)c2ccc(C)cc2o1,inactive: -2.54%
15,CSc1cccc(Nc2cc(C(=O)NCCCN(C)c3ccccc3)c3ccccc3n2)c1,inactive: -2.2%
16,COc1cc(C(=O)n2nc(C)c(Sc3ccc(Cl)cc3)c2C)cc(OC)c1OC,inactive: -12.5%
17,CC(=O)N1CCc2cc(S(=O)(=O)NC(C(=O)Nc3ccc(C)cc3C)C(C)C)ccc21 (stereo not given),inactive: 10.1%
18,NC1(C(=O)O)CCc2cc(C(=O)O)ccc21 (stereo not given),inactive: 7.47%
19,COc1ccc(NC(=O)C2CCCN(S(=O)(=O)c3ccc(Br)s3)C2)cc1 (stereo not given),inactive: -14.3%
20,NC(CO)C(=O)NNCc1ccc(O)c(O)c1O (stereo not given),inactive: 25.3%
21,CCCCCCCCCCC(CO)CCCCCCCC (stereo not given),inactive: -21.5%
22,COc1cc(NC(=O)c2ccc(C)cc2)ccc1NC(=O)c1cc2ccccc2o1,inactive: -2.51%
23,Cc1ccc(C)c(CN2C(=O)C(=O)c3ccccc32)c1,inactive: -26.6%
24,O=C1CSC2(C(=O)N(Cc3ccccc3F)c3ccccc32)N1c1ccc(F)cc1 (stereo not given),inactive: -4.41%
25,COCC(=O)Nc1c(I)c(C(=O)NCC(O)CO)c(I)c(C(=O)N(C)CC(O)CO)c1I (stereo not given),inactive: 11.7%
26,Cc1ccc2onc(CNC(=O)N3CCN(c4cccc(C)c4C)CC3)c2c1,inactive: -27.5%
27,COc1ccc(-c2cc(C(=O)Nc3cccnc3Cl)no2)cc1OC,inactive: -4.93%
28,CCSc1nnc2n(-c3cccc(C)c3)c(=O)c3c4c(sc3n12)CCCC4,inactive: 23.6%

row,SMILES,activation
1,COc1ccc(CCC(=O)N2CCc3c([nH]c4ccccc34)C2c2ccc(F)cc2)cc1 (stereo not given),inactive: -35.3%
2,Cc1coc2ccccc2c1=O,inactive: 16.4%
3,COc1ccc(-n2ccnc2SCC(=O)Nc2ccc(F)cc2F)cc1,inactive: -9.09%
4,Cc1cc2nn(-c3ccccc3)nc2cc1NC(=O)c1cccc2c(Cl)cccc12,inactive: 3.48%
5,Cc1nc2cccnc2n1-c1cccc(C(=O)N2CCN(c3ccc(Cl)cc3)CC2)c1,inactive: 46.3%
6,CCN(CCCNC(=O)Cn1ncc2c([nH]c3ccc(C)cc32)c1=O)c1cccc(C)c1,inactive: -10.9%
7,CCC(=O)N1c2ccccc2CC1C(=O)NCc1ccc(OC(C)C)cc1 (stereo not given),inactive: -0.76%
8,Cc1cccc(CCNC(=O)c2sc3nc4n(c(=O)c3c2C)CCCC4)c1,inactive: -8.54%
9,COc1ccc(C2CC(=O)Nc3c2c(C)nn3-c2nncc(-c3ccc(C)cc3)n2)c(OC)c1OC (stereo not given),inactive: -5.25%
10,CCOC(=O)Nc1ccc(NCc2ccc(F)cc2)nc1N,inactive: -4.49% and inactive: -2.33%
11,CCOc1ccc(-c2nc(SCC(=O)Nc3ccc4c(c3)OCO4)c(-c3ccc(F)cc3)[nH]2)cc1,inactive: -12.1%
12,CCc1ccccc1NC(=O)c1ccc2c(c1)N(Cc1cccc(Cl)c1)C(=O)c1ccccc1S2(=O)=O,inactive: 3.3%
13,Cc1csc2nc(-c3cccc(NC(=O)C(C)C)c3)cn12,inactive: -14%
14,Cc1cccc(OCC(O)CNC(C)(C)C)c1C (stereo not given),inactive: -3.15%
15,Cc1sc2ncn(CC(=O)N(C)c3ccc(Br)cc3)c(=O)c2c1S(=O)(=O)N1CCC(C)CC1,inactive: -22.9%
16,Cc1nc2c(C(=O)NCc3ccccc3)c[nH]n2c(=O)c1Cc1ccccc1Cl,inactive: -3.18%
17,CC(=O)N1CCc2cc(S(=O)(=O)CCC(=O)N3CCN(c4cccc(C)c4C)CC3)ccc21,inactive: 3.47%
18,Cc1cccc(NC(=O)c2c(C)oc3ncn(CC(C)C)c(=O)c23)n1,inactive: -4.38%
19,COc1ccc(NC(=O)c2noc3c2CCCC3)cc1Cl,active: 85.5%
20,O=C(NCCc1ccccc1)c1cc(-c2ccc(Cl)cc2)on1,inactive: 1.78%
21,CCCOC1(C(F)(F)F)NC(=O)N(c2ccc(Cl)cc2)C1=O (stereo not given),inactive: -3.78%
22,Cc1cc(C)c(NC(=O)CSc2nc(=O)[nH]c3c2CCCC3)c(C)c1,inactive: 11.3%
23,CC(C)(C)c1ccc(OCC(=O)N2CCC(c3nc4ccccc4s3)CC2)cc1,inactive: 24.6%
24,CCOc1ccc(-c2nnc(Nc3ccc(S(N)(=O)=O)cc3)c3ccccc23)cc1,inactive: 25.4%
25,Cc1oc2c(c(C)cc3oc(=O)c(CC(=O)NCCc4ccccc4)c(C)c32)c1C,inactive: -12.6%
26,CN1C(C(=O)c2ccccc2)=C(OC(=O)c2ccc(Br)cc2)c2ccccc2S1(=O)=O,inactive: -30.2%
27,O=C(NC(=O)c1ccc(F)cc1)Nc1ccc(-c2cc(C(F)(F)F)nn2-c2ccccc2)cc1,inactive: 4.82%
